Data on 48 compounds can be found in PubChem BioAssay AID1508623 (National Center for Advancing Translational Sciences (NCATS), 2021).

Among all 48,000 compounds or so, about 450 (0.94%) were called active. Roughly 19% stayed inconclusive and do not appear here. The call rests on the fitted dose curve; in most records, active means well fitted inhibition curve with a large enough effect; inconclusive means small, poorly fitted or top-dose-only effect; inactive means no such curve, though single readings can be large or run the other way. The list shows a part of the results.

The nature of this test: Primary qHTS for Identification of Small Molecule Inhibitors of Huntingtin Promoter Activity. Further: nearly all actives have a fitted effect of over 50% in size. Particulars: HEK293 HTT promoter firefly luciferase reporter (activity 0% = vehicle and -100% = no light), 24 h; series mostly up to 57.5 µM; activity change, negative = inhibition: at the top concentration. In outline:
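Firefly luciferase signal from promoter-reporter HEK293 cells was scaled between vehicle (0%) and zero RLU (-100%). Compounds were tested at final concentrations of up to 57.5 uM over 24 h at 37 degrees C. PTC124 at 50 uM final served as control inhibitor.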
Background: qHTS replaces the single test concentration by a dilution series.
Regarding `COc1cc(C2c3c(oc4ccccc4c3=O)C(=O)N2c2ccccn2)cc(OC)c1OC` (stereo not drawn), the “activity change, negative = inhibition” value is inactive: -16.4%.

For the compound `COc1ccc(N(Cc2cccs2)C(=O)c2ccc(OCC(C)C)cc2)cc1`, the “activity change, negative = inhibition” value is inactive: -29.3%.

In the case of `CCCc1nn2c(=O)cc(COC(=O)c3ccccc3NC(=O)c3cccs3)nc2s1`, the “activity change, negative = inhibition” value is inactive: 17.9%.

On to `COC(=O)[C@@H]1[C@H]2C[C@H]3c4[nH]c5ccccc5c4CCN3C[C@@H]2CC[C@@H]1O`, for which the “activity change, negative = inhibition” value was inactive: 5.12%.

For `Cc1ccc(C)c(C(=O)c2c(N)c(-c3nc(-c4ccc5c(c4)OCO5)cs3)c3ccccn23)c1`, the “activity change, negative = inhibition” value is inactive: -36.4%.

Consider `Cc1cccc(NC(=O)C2CCC(CNS(=O)(=O)c3ccc(Br)s3)CC2)c1` (stereo not drawn), for which the “activity change, negative = inhibition” value is inactive: -29.6%.

Regarding `Cc1ccc(OCC(=O)Nc2ccc(Cl)c(-c3nc4ncccc4o3)c2)c(C)c1`, the “activity change, negative = inhibition” value was inactive: 6.91%.

`COc1cccc(C2CC(=O)N(c3ccc(F)cc3)C3=C2C(=O)OC3)c1OC` (stereo not drawn): the “activity change, negative = inhibition” value was inactive: 16.3%.

On to `Cc1ccc(C)c(NC(=O)CN2C(=O)COc3ccc(Cl)cc32)c1`, for which the “activity change, negative = inhibition” value was inactive: -27.6%.

In the case of `C[N+](C)([O-])CCNc1ccc(NCC[N+](C)(C)[O-])c2c1C(=O)c1c(O)ccc(O)c1C2=O`, the “activity change, negative = inhibition” value is inactive: -6.33%.

With `Cn1c(=O)nc2n(-c3ccc(Cl)c(Cl)c3)c3cc(Cl)ccc3cc-2c1=O`, the “activity change, negative = inhibition” value was inactive: -4.29%.

In the case of `O=C(Nc1c(C(=O)Nc2ccc(F)cc2)oc2ccccc12)c1ccccc1F`, the “activity change, negative = inhibition” value was inactive: -2.21%.

Take `CCCCNC(=O)NS(=O)(=O)c1ccc(C)cc1`: the “activity change, negative = inhibition” value is inactive: 6.28%.

Turning to `COc1ccccc1CNC(=O)C1CCCN(c2nnc(-n3c(C)ccc3C)s2)C1` (stereo not drawn), the “activity change, negative = inhibition” value was inactive: -15.9%.

Turning to `Cc1cc(O)cc2c1O[C@](C)(CCC[C@H](C)CCC[C@H](C)CCCC(C)C)CC2`, the “activity change, negative = inhibition” value was inactive: 2.91%.

As for `COc1ccc(C(=O)N(Cc2ccc(C(C)C)cc2)C2CCS(=O)(=O)C2)cc1` (stereo not drawn), the “activity change, negative = inhibition” value was inactive: -28.9%.

With `Cc1nc2nc(SCC(=O)NCCc3ccccc3)nn2c(C)c1Cc1c(F)cccc1Cl`, the “activity change, negative = inhibition” value was inactive: -4.4%.

As to `Cc1ccccc1CNS(=O)(=O)c1csc(C(N)=O)c1`, the “activity change, negative = inhibition” value was inactive: -18.6%.

Turning to `CCn1c(SCCOc2ccccc2F)nc2ccccc21`, the “activity change, negative = inhibition” value was inactive: -3.21%.

Consider `CCOc1ccccc1C(=O)Nc1ccc2c(c1)N(C)C(=O)c1ccccc1S2`, for which the “activity change, negative = inhibition” value was inactive: -26.3%.

Consider `Cc1c(C2=CCN(S(=O)(=O)c3ccc(CC(C)C)cc3)CC2)c2ccccc2n1CC(=O)N1CCCC1`, for which the “activity change, negative = inhibition” value is inactive: -24.3%.

As for `Cc1nn(-c2ccc(N3CCOCC3)nn2)c(C)c1CCC(=O)NCc1ccc(OC(C)C)cc1`, the “activity change, negative = inhibition” value was inactive: -16.7%.

As for `Cc1cccc(N(C)S(=O)(=O)c2cc3c(cc2Cl)NC(=O)CO3)c1`, the “activity change, negative = inhibition” value is inactive: -26.6%.

For `CCOc1ccc(NS(=O)(=O)c2ccc3[nH]c4c(c3c2)CCCC4)cc1`, the “activity change, negative = inhibition” value is inactive: -3.83%.

As to `COc1ccc(-c2cn3nc(N4CCC(C(=O)Nc5cccc(C)c5C)CC4)sc3n2)cc1`, the “activity change, negative = inhibition” value was inactive: -16.3%.

For `CCCSc1ncc(Cl)c(C(=O)Nc2sc3c(c2C(=O)NCCOC)CCCC3)n1`, the “activity change, negative = inhibition” value is inactive: -8.41%.

Regarding `Cc1c(Cl)cccc1NC(=O)CSc1nc(=O)n(Cc2ccccn2)c2c1CCC2`, the “activity change, negative = inhibition” value is inactive: -11.5%.

Turning to `O=C(Nc1ccc(F)cc1F)c1cc(-c2ccccc2O)no1`, the “activity change, negative = inhibition” value is inactive: -12.6%.

For the compound `Cc1ccc(NC(=O)Cn2c(=O)n(CCCCC(=O)NCCc3ccccc3)c(=O)c3ccccc32)c(C)c1`, the “activity change, negative = inhibition” value was inactive: -7.56%.

Consider `CCCCOC(=O)c1ccc(NC(=O)c2cc3c(=O)n4cccc(C)c4nc3n2C)cc1`, for which the “activity change, negative = inhibition” value is inactive: 0.532%.

With `COCCNC(=O)CCCn1c(=O)c2cc(OC)c(OC)cc2n(CC(=O)Nc2ccc(F)cc2)c1=O`, the “activity change, negative = inhibition” value is inactive: -10%.

As to `O=C(COc1ccccc1Cl)Nc1ccc2oc(-c3ccccc3F)nc2c1`, the “activity change, negative = inhibition” value was inactive: 14%.

On to `CCOC(=O)C1CCN(CCC(=O)Nc2ccc(Br)c(C)c2)CC1`, for which the “activity change, negative = inhibition” value is inactive: -5.91%.

Turning to `O=C(CSc1nc(=O)[nH]c2c1CCCC2)Nc1ccccc1C(F)(F)F`, the “activity change, negative = inhibition” value is inactive: -18.2%.

Regarding `Cc1ccc(NC(=O)C(NS(=O)(=O)c2ccc3c(c2)CCC(=O)N3)c2ccccc2)cc1C` (stereo not drawn), the “activity change, negative = inhibition” value was inactive: -9.25%.

On to `COc1ccc(NC(=O)c2nnn(Cc3nc(-c4cc(Br)ccc4OC)oc3C)c2C)cc1`, for which the “activity change, negative = inhibition” value is inactive: -6.72%.

Regarding `CCOc1cccc(C2c3c(oc4ccc(F)cc4c3=O)C(=O)N2CCc2ccc(OC)cc2)c1` (stereo not drawn), the “activity change, negative = inhibition” value is inactive: 5.92%.

On to `COc1ccc(Nc2cc(C(=O)NC3CCCC3)c3ccccc3n2)c(OC)c1`, for which the “activity change, negative = inhibition” value is inactive: -3.13%.

As to `CCNC(=O)Cn1c(-c2cccs2)cc2ccccc21`, the “activity change, negative = inhibition” value was inactive: -24.2%.

`Cc1ccc(CN(C(=O)Nc2cccc(Cl)c2)c2ccccn2)cc1`: the “activity change, negative = inhibition” value was inactive: -4.72%.

As to `Cc1oc(C)c2c(=O)cc(-c3ccc4c(c3)OCO4)cc(OC(=O)c3ccccc3Br)c12`, the “activity change, negative = inhibition” value was inactive: -26.8%.

As to `COc1ccc(NC(=O)C2CCN(S(=O)(=O)c3ccc4c(c3)CCCC(=O)N4)CC2)cc1Cl`, the “activity change, negative = inhibition” value is inactive: -21.3%.

As for `COc1ccc(S(=O)(=O)N2CCN(c3ccccc3OC)CC2)cc1-c1noc(C)n1`, the “activity change, negative = inhibition” value is inactive: 4.89%.

For the compound `COc1cc(/C=C(\C#N)c2nc3ccccc3c(=O)[nH]2)cc(OC)c1OC`, the “activity change, negative = inhibition” value was inactive: 13.9%.

As to `Cc1ccc(Cn2c(-c3ccccc3)nc3ccccc32)cc1`, the “activity change, negative = inhibition” value is inactive: 6.78%.

In the case of `Cc1ccc(-c2nc3ccccc3n3c(-c4ccccc4)c4c(=O)n(C)c(=O)n(C)c4c23)cc1`, the “activity change, negative = inhibition” value is inactive: -4.93%.

Consider `CCn1ccc2cc(S(=O)(=O)N3CCCN(C(=O)NCC(C)C)CC3)ccc21`, for which the “activity change, negative = inhibition” value was inactive: -33.1%.

In the case of `COc1cc(OC)c(NC(=O)c2cc(CN3CCOCC3)on2)cc1Cl`, the “activity change, negative = inhibition” value was inactive: 1.76%.
